The text below walks through data of PubChem BioAssay AID360 (National Center for Advancing Translational Sciences (NCATS), 2006).

The whole screen tested about 48,000 compounds, of which about 550 (1.1%) were called active. Not shown: some 4% with an inconclusive outcome. No stated cut-off is given here; in the data, active means potency below about 15 µM; inconclusive means mostly about 16 µM to 33 µM; inactive means weaker than that. The list shows a part of the results.
Potency means the concentration at half of the fitted maximal effect.

UniProt P04062, sequence (P04062 whole entry, looked up): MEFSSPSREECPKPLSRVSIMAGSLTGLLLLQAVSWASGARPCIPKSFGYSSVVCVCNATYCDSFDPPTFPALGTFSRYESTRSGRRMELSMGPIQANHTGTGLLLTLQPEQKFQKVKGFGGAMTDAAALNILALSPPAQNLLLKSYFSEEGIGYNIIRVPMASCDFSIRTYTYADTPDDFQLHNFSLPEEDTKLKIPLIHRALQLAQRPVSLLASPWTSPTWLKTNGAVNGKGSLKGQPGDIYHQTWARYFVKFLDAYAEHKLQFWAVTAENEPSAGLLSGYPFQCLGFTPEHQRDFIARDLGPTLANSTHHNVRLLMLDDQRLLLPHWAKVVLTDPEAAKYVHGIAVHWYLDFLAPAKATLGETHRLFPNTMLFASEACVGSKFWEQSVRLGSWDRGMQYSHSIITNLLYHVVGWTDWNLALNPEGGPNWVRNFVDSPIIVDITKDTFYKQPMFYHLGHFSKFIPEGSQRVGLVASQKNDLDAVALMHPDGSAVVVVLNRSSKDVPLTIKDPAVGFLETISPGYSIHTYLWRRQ

The experiment addresses Lysosomal acid glucosylceramidase (Homo sapiens) (UniProt P04062). Kind of experiment: Glucocerebrosidase.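 Further: the screen sought inhibitors.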 To be noted: purified enzyme, resorufin glucoside fluorescence (screen aimed at inhibitors), 20 min. Summed up:
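Normal human glucocerebrosidase (0.2 nM final) was assayed with resorufin β-D-glucopyranoside (30 uM final) in 50mM citric acid/KH2PO4, 10mM sodium taurocholate, 0.01% tween-20, pH 5.9. Compounds were titrated; fluorescence (Ex 548, Em 600) read after 20 min at RT.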
Take `CCOC(=O)CNc1nc(OCC#N)nc(N2CCOCC2)n1`: the Potency is inactive: > 76.9 µM.

For `CC(=O)Nn1c(COc2ccccc2C)nc2ccccc2c1=O`, the Potency was inactive: > 76.9 µM.

Regarding `CCCCCc1nc2ccccc2c(=O)n1N`, the Potency was inactive: > 76.9 µM.

Regarding `CC(=O)Nc1c(O)nc(SCC(=O)N2CCN(c3ccc(F)cc3)CC2)[nH]c1=O`, the Potency was inactive: > 76.9 µM.

For `O=C(CN(C(=O)CNS(=O)(=O)c1ccccc1)C1CCCC1)NCC1CCCO1` (configuration not stated), the Potency is inactive: > 76.9 µM.

On to `Cc1cccc2cc(COC(=O)C(C)C)c(=O)[nH]c12`, for which the Potency is inactive: > 76.9 µM.

Regarding `COc1ccc(-c2nnc(Nc3nc4c(OC)cccc4s3)o2)c(OC)c1`, the Potency was inactive: > 76.9 µM.

For `CC1(C)CC(=O)C2=C(C1)Oc1ncn(CCCn3ccnc3)c(=N)c1C2c1ccccc1` (configuration not stated), the Potency was inactive: > 76.9 µM.

As to `O=c1c2ccccc2ncn1Cc1nc2ccccc2s1`, the Potency was inactive: > 76.9 µM.

`CCCCCn1c(SCCCC)nc2c1c(=O)[nH]c(=O)n2C`: the Potency is inactive: > 76.9 µM.

For `COc1ccc(NC(=O)Nc2nnc(C(C)C)s2)cc1`, the Potency is inactive: > 76.9 µM.

For the compound `Cc1ccc(-n2nc3c(c2NC(=O)c2ccc4c(c2)OCO4)CS(=O)C3)cc1` (configuration not stated), the Potency is inactive: > 76.9 µM.

Take `COC(=O)c1sc(NC(=O)Cc2cccs2)nc1C`: the Potency is inactive: > 76.9 µM.

Consider `COc1ccc(Cl)cc1CSc1n[nH]c(C)n1`, for which the Potency is inactive: > 76.9 µM.

`Cc1c(NC(=O)CCC2CCCCC2)c(=O)n(-c2ccccc2)n1C`: the Potency was inactive: > 76.9 µM.

Turning to `C1CCc2c(nnc3c2-c2nonc2CC3)C1`, the Potency was inactive: > 76.9 µM.

Regarding `COC(=O)c1nnn(CC(=O)Nc2ccc(C)c(F)c2)c1C(=O)OC`, the Potency is inactive: > 76.9 µM.

With `CCCC(=O)N1CC2(CCC)CN(C(=O)CCC)CC(CCC)(C1)C2=O`, the Potency is inactive: > 76.9 µM.

Consider `CCOC(=O)c1ccc(NC(=O)Nc2cc(C)on2)cc1`, for which the Potency entry was “inactive”.

With `O=C(c1ccccc1F)N1CCC(O)(c2cccnc2)CC1`, the Potency was inactive: > 76.9 µM.

Regarding `Cc1occc1C(=O)NC1CCCc2ccccc21` (configuration not stated), the Potency is inactive: > 76.9 µM.

In the case of `CC12CC(NC(=O)N1c1cccc(C(=O)N3CCN(c4ccccn4)CC3)c1)c1ccccc1O2` (configuration not stated), the Potency is inactive: > 76.9 µM.

For `COc1ccc(C(c2nnnn2Cc2ccccc2)N2CCN(c3ccccc3)CC2)cc1` (configuration not stated), the Potency is inactive: > 76.9 µM.

Turning to `COc1ccccc1N(CCC#N)C(=O)CSc1nc(-c2ccccc2)cn1N`, the Potency is inactive: > 76.9 µM.

As for `CN1C(=O)CC(n2c(CO)nc3ccccc32)C1=O` (configuration not stated), the Potency was inactive: > 76.9 µM.

In the case of `O=C1CC(N(O)c2ccccc2)C(=O)N1c1cc(Cl)cc(Cl)c1` (configuration not stated), the Potency is inactive: > 76.9 µM.

For `O=C(Nc1nc2cc3c(cc2s1)OCCO3)c1cccc(S(=O)(=O)N2CCOCC2)c1`, the Potency was inactive: > 76.9 µM.

In the case of `CC(C)(C)n1nc2c(c1NC(=O)c1ccco1)CS(=O)C2` (configuration not stated), the Potency is inactive: > 76.9 µM.

As to `Cc1cc(C)c2cc(CN(CCO)C(c3nnnn3Cc3ccc(F)cc3)C(C)C)c(=O)[nH]c2c1` (configuration not stated), the Potency was inactive: > 76.9 µM.

For the compound `COc1ccccc1-n1c(SCC(N)=O)nnc1-c1ccc(S(=O)(=O)N2CCCCC2)cc1`, the Potency was inactive: > 76.9 µM.

For `COc1ccc(CCNC(=O)Cn2nnc(-c3cccs3)n2)cc1OC`, the Potency is inactive: > 76.9 µM.

For `O=C(Nc1ccc(Cl)cc1)N1CCCC1`, the Potency was inactive: > 76.9 µM.

Consider `NC(=O)CSC1=Nc2ccccc2C2=NC(CCC(=O)NCc3ccc(F)cc3)C(=O)N12` (configuration not stated), for which the Potency was inactive: > 76.9 µM.

On to `COc1cc(C2=NOC(C(=O)NCc3ccco3)C2)cc(OC)c1OC` (configuration not stated), for which the Potency is inactive: > 76.9 µM.

On to `CC(C(=O)Nc1cccnc1)N1C(=O)c2ccccc2C1=O` (configuration not stated), for which the Potency was inactive: > 76.9 µM.

Turning to `C=CCn1c(N)c(C(=O)NCC2CCCO2)c2nc3ccccc3nc21` (configuration not stated), the Potency was inactive: > 76.9 µM.

As for `CCS(=O)(=O)N1Cc2ccccc2CC1C(=O)N1CCN(c2ccccc2)CC1` (configuration not stated), the Potency is inactive: > 76.9 µM.

For the compound `C=CCN1C(=O)/C(=C2/Sc3ccccc3N2C)SC1=Nc1c(C)n[nH]c1C`, the Potency was inactive: > 76.9 µM.

For `O=C(COC(=O)Cc1ccsc1)NC1CCCCCC1`, the Potency was inactive: > 76.9 µM.

With `COc1ccc(N2C(=O)CCC(C(=O)N3CCCCCC3)C2c2ccc(OC)c(OC)c2)cc1` (configuration not stated), the Potency is inactive: > 76.9 µM.

Turning to `CCOC(=O)c1cccnc1SCc1cc(=O)n2ccccc2n1`, the Potency was inactive: > 76.9 µM.

Take `O=C(NCc1cccs1)C1CC(=O)N(c2ccccc2)C1` (configuration not stated): the Potency was inactive: > 76.9 µM.

For the compound `CC1(C)CC(=O)c2cnc(NCC3CCCO3)nc2C1` (configuration not stated), the Potency was inactive: > 76.9 µM.

Consider `Cc1cc(NC(=O)c2cccc(S(=O)(=O)N3CCOCC3)c2)c2ccccc2n1`, for which the Potency is inactive: > 76.9 µM.

Turning to `CC(=O)N1CCc2cc(S(=O)(=O)CCC(=O)Nc3c(C)n(C)n(-c4ccccc4)c3=O)ccc21`, the Potency was inactive: > 76.9 µM.

For `Cc1oc2nc(SCC(=O)NCc3cccnc3)nc(N)c2c1C`, the Potency was inactive: > 76.9 µM.

As to `CCCn1c(SCC(=O)Nc2nonc2C)nnc1-c1ccoc1C`, the Potency was inactive: > 76.9 µM.

In the case of `COc1ccc(C(c2nnnn2Cc2cccs2)N2CCN(c3ccccc3F)CC2)cc1OC` (configuration not stated), the Potency was inactive: > 76.9 µM.

On to `COCC(C)n1c(C)cc(C(=O)COC(=O)c2ccc3ncsc3c2)c1C` (configuration not stated), for which the Potency is inactive: > 76.9 µM.

As for `CC(=O)N1c2c(cc(Br)cc2S(=O)(=O)NCc2ccc3c(c2)OCO3)CC1C` (configuration not stated), the Potency is inactive: > 76.9 µM.

For the compound `O=C(CN1CCOCCOCCN(CC(=O)Nc2ccccc2)CCOCC1)Nc1ccccc1`, the Potency is inactive: > 76.9 µM.

As to `N#CC(C(N)=O)=C1CCC2(CC1)OCCCCO2`, the Potency was inactive: > 76.9 µM.

Consider `N#Cc1nc(-c2cccc3ccccc23)oc1N1CCCCC1`, for which the Potency was inactive: > 76.9 µM.

As for `c1csc(-c2nn3c(Cn4nnc5ccccc54)nnc3s2)c1`, the Potency is inactive: > 76.9 µM.

As to `CCCN(CC1CC1)C(=O)Nc1ccccc1C`, the Potency is inactive: > 76.9 µM.

In the case of `COc1ccc(C2(C(=O)NCC3CCCO3)CCOCC2)cc1` (configuration not stated), the Potency was inactive: > 76.9 µM.

As to `CC(C)(C)NCC1(CO)SC(N)=NC1=O` (configuration not stated), the Potency is inactive: > 76.9 µM.

For the compound `O=C(COC(=O)c1ccccc1)NCc1ccco1`, the Potency is inactive: > 76.9 µM.

For `CCn1c(C(O)c2cccc(OC)c2OC)nc2ccccc21` (configuration not stated), the Potency is inactive: > 76.9 µM.

On to `CC(=O)NC1C(=O)N=C(SCC(=O)NCc2ccccc2)NC1=O` (configuration not stated), for which the Potency was inactive: > 76.9 µM.

For the compound `Cc1cc(C)cc(NC(=O)Cn2ncn3c(cc4ccccc43)c2=O)c1`, the Potency is inactive: > 76.9 µM.

Take `CCc1cccc(C)c1NC(=O)C1=C(C(=O)O)CCCC1`: the Potency is inactive: > 76.9 µM.

Turning to `CCOC(=O)CSc1nnc(CNC(=O)c2ccco2)n1-c1ccc(F)cc1`, the Potency is inactive: > 76.9 µM.

As for `O=C(CC1CCCCC1)Nc1c2c(nn1-c1ccc(F)cc1)CS(=O)(=O)C2`, the Potency was inactive: > 76.9 µM.

`CC1Cc2ccccc2N1C(=O)CSc1ncccc1C(=O)O` (configuration not stated): the Potency was inactive: > 76.9 µM.

As for `COc1ccc(C(=O)Nn2cc3c(c2-c2ccccc2)c(=O)n(C)c(=O)n3C)cc1`, the Potency was inactive: > 76.9 µM.

As for `CCN(CC)c1ccc2c(C)c(CN3CCOCC3)c(=O)oc2c1`, the Potency is inactive: > 76.9 µM.

For the compound `CC(C)(C)OC(=O)N1CCC[C@@H]1C(=O)N1CCC(C(=O)O)CC1`, the Potency was inactive: > 76.9 µM.

Take `O=C(O)c1ccc(CS(=O)c2cccc(C(F)(F)F)c2)o1` (configuration not stated): the Potency is inactive: > 76.9 µM.

For `O=C(c1cc(-c2ccco2)on1)N1CCc2ccccc2C1`, the Potency is inactive: > 76.9 µM.

Consider `COC(=O)c1ccc(CSc2nc3ccccc3c(=O)n2Cc2ccco2)o1`, for which the Potency was inactive: > 76.9 µM.

As to `Cn1c(=O)[nH]c(=O)c2c1nc(NCc1ccco1)n2CCCc1ccccc1`, the Potency is inactive: > 76.9 µM.

For `CCN1C(=O)CC(N2CCN(C(c3ccccc3)c3ccccc3)CC2)C1=O` (configuration not stated), the Potency was inactive: > 76.9 µM.

As to `COc1cc(S(=O)(=O)Nc2ccccc2C)ccc1Cl`, the Potency was inactive: > 76.9 µM.

As to `c1ccc2[nH]c(CN3CCCCCC3)nc2c1`, the Potency is inactive: > 76.9 µM.

Regarding `CCOc1ccc(CCNC(=O)C2CCN(C(=O)N(C)C)CC2)cc1OCC`, the Potency is inactive: > 76.9 µM.

As to `O=C(Nc1ccccc1)C1=C(O)CC(c2ccco2)CC1=Nc1ccccc1` (configuration not stated), the Potency is inactive: > 76.9 µM.

Consider `Cc1ccc(OCC2Cn3c(nc4c3c(=O)n(C)c(=O)n4C)O2)cc1` (configuration not stated), for which the Potency was inactive: > 76.9 µM.

On to `CC12CCC(C(=O)n3c1nc1ccccc13)C2(C)C` (configuration not stated), for which the Potency is inactive: > 76.9 µM.

With `O=C(COc1ncnc2ccccc12)NCc1ccc2c(c1)OCO2`, the Potency was inactive: > 76.9 µM.

As for `N#CC1=C2SCCN2C(=O)C(C#N)C12CCCCC2` (configuration not stated), the Potency was inactive: > 76.9 µM.

As for `CSc1nsc(SC)c1NC(=O)OCc1ccccc1`, the Potency is inactive: > 76.9 µM.

With `CC(C)NC(=O)NC(=O)COc1ncnc2sccc12`, the Potency is inactive: > 76.9 µM.

On to `O=C(Cc1cccs1)Nc1ccccc1C(=O)O`, for which the Potency was inactive: > 76.9 µM.

In the case of `Clc1ccccc1CSc1ncccn1`, the Potency is inactive: > 76.9 µM.

`O=C1CCCc2nc(N3CCCCC3)sc21`: the Potency was inactive: > 76.9 µM.

For `O=C(O)c1ccccc1C(=O)N1CC=C(c2ccccc2)CC1`, the Potency is inactive: > 76.9 µM.

Regarding `CC(C)Sc1nnc([C@H](C)NC(=O)OC(C)(C)C)o1`, the Potency was inactive: > 76.9 µM.

For `CCCNS(=O)(=O)c1ccc(NC(=O)c2ccccn2)cc1`, the Potency is inactive: > 76.9 µM.

Regarding `COc1ccc(CN(Cc2ccccn2)S(=O)(=O)c2ccc(-n3cnnn3)c(OC)c2)cc1`, the Potency was inactive: > 76.9 µM.

Take `CCOc1ccc(N2CC(C(=O)Nc3ccc(S(=O)(=O)N4CCOCC4)cc3)CC2=O)cc1` (configuration not stated): the Potency is inactive: > 76.9 µM.

As for `COC(=O)c1[nH]c2cccc(OC)c2c1NC(=O)CCN1CCC(C)CC1`, the Potency is inactive: > 76.9 µM.
